According to publication PMC4336329 (PLoS ONE, 2015):
The whole screen tested about 310,000 compounds, of which about 2,200 (0.71%) showed an effect of 50% or more. The effect is printed as a negative number. Some of the results follow.

molecular target: human ether-à-go-go-related gene (hERG) potassium channel (human, UniProt Q12809); assay: primary screen, population patch clamp on CHO cells stably expressing hERG
Sequence (Q12809 whole entry, looked up): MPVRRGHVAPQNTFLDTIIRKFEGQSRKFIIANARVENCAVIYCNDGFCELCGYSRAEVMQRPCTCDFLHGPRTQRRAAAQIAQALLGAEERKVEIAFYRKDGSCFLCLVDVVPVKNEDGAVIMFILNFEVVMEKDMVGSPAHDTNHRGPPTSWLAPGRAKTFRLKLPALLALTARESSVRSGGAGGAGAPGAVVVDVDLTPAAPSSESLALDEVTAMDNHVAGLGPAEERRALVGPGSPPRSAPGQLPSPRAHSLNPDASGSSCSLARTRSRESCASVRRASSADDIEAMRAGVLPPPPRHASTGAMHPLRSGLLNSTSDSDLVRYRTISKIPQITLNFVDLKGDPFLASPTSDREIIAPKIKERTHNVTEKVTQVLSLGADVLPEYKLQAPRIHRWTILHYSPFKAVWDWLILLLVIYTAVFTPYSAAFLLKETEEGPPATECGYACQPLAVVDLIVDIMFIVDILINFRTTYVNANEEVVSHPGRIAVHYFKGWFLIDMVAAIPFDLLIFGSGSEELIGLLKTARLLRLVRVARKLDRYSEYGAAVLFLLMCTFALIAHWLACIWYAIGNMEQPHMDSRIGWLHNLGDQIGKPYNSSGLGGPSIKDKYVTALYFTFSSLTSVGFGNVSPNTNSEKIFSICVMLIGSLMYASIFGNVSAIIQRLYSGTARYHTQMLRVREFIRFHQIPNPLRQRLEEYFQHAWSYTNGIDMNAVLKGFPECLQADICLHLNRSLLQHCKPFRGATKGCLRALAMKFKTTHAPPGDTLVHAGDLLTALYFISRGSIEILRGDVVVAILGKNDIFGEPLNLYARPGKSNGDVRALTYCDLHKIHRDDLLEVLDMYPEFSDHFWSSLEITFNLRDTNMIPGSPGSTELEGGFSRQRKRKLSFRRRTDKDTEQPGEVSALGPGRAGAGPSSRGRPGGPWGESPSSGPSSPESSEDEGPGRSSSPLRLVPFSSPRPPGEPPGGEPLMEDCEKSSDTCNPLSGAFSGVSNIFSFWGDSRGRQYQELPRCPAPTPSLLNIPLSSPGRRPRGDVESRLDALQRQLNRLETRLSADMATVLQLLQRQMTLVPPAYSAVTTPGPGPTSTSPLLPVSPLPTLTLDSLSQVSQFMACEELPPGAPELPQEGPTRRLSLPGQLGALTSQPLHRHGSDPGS

Structure (SMILES) | hERG current change (%, negative = inhibition) at 1uM [%]
O=C(Cc1ccc(F)cc1)c1ccc(O)cc1O | 12.8
CCn1cc(C(=O)N2CCN(c3ccccc3F)CC2)c(=O)c2ccc(C)nc21 | 7.11
OCC1CCCN(C2CCN(Cc3nc(Cc4cccc(C(F)(F)F)c4)no3)CC2)C1 (stereo not drawn) | -17.5
CC(=O)Oc1cc2c(C(=O)NCc3ccncc3)c(C)oc2c2ccccc12 | 10.3
Cc1nc2c(c(C)nn2-c2ccccc2)c(C)c1CCC(=O)N1CCC2(CC1)OCCO2 | -3.22
Cc1ccc(NC(=O)NC(=O)CN2CCN(c3ccc(O)cc3)CC2)c(C)c1 | 11.1
COc1c(-c2ccccc2)oc2c(ccc3occc32)c1=O | 14.9
O=C(CSc1nnc(CCc2nc3ccccc3[nH]2)n1-c1ccccc1)NCc1ccco1 | -0.738
COC(=O)c1ccc(NC2=CC(=O)CC(C)(C)C2)cc1 | 2.48
O=C(NCC1CCCCC1)c1ccccc1[N+](=O)[O-] | 14.1
COc1ccc(/C(C)=N/Nc2ccccc2Cl)c(O)c1 | 11.2
CCOC(=O)C/C(C)=N/NC(=O)CNc1cccc(Cl)c1C | 2.16
Cc1cccc(OCC(=O)Nc2ccc(S(=O)(=O)N3CCCC3)cc2)c1 | -4.68
COc1ccc(/C(C)=N/NC(=O)c2ccc(CSc3nncn3C)cc2)cc1 | 10.7
CC(C)CNC(=O)C(=O)NCc1ccccc1 | 7.59
CCn1c(=O)c([N+](=O)[O-])c(NCc2ccc3c(c2)OCO3)c2ccccc21 | 2.5
N#CCCN1CCN(S(=O)(=O)c2ccc(S(=O)(=O)N3CCOCC3)cc2)CC1 | 4.63
CC(=O)Nc1ccccc1C(=O)N1CCc2ccccc21 | 6.02
CC(C)(C)NC(=O)/C(=C\c1ccco1)NC(=O)c1cccs1 | 8.96

Structure (SMILES) | hERG current change (%, negative = inhibition) at 1uM [%]
COc1ccc(NC(=O)C2CSC(C)(C)N2C=O)cc1 (stereo not drawn) | 9.27
Cc1ccc(S(=O)(=O)N2CCC(C(=O)Nc3ccc(S(=O)(=O)N4CCCC4)cc3)CC2)cc1C | 6.29
O=C(CSc1nnc(-c2ccccc2)n1Cc1ccccc1)NC1CC1 | 4.44
Cc1ccc([N+](=O)[O-])cc1-c1ccc2cccc(C)c2n1 | 14.2
C/C(=N\NC(=O)CCc1c[nH]c2ccccc12)c1cccc([N+](=O)[O-])c1 | 6.95
COc1ccc(CN2CCNC(=O)C2CC(=O)N2CCCO2)c(OC)c1 (stereo not drawn) | 15.5
Cc1ccc(CN2CCCC(C(=O)c3sccc3C)C2)o1 (stereo not drawn) | 1.92
O=C(Cc1ccc(Cl)cc1)SCc1ccccc1 | 6.03
CNCC[C@H](Oc1cccc2ccccc12)c1cccs1 | 2.71
Cc1sc2nc(C)n(/N=C/c3ccc(O)cc3)c(=O)c2c1C | -2.57
O=C(CCC(=O)c1ccccc1)Nc1ccccc1OC(F)F | 12.4
O=C1Nc2ccccc2C(O)(C(=O)NCc2ccco2)N1c1ccc(Cl)cc1 (stereo not drawn) | 3.8
CC(=O)/C=C(\C)Nc1ccccc1O | 8.64
O=S(=O)(Oc1ccc(Cl)cc1)c1cccc2cccnc12 | 6.15
COCCCn1c(C)csc1=Nc1cccnc1 | 17
O=C(NCC(=O)N1CCCCC1)c1sc2ccccc2c1Cl | 0.939
CCn1cc(C(=O)OCC(=O)N(C)C2CCS(=O)(=O)C2)c(=O)c2ccc(C)nc21 (stereo not drawn) | 2.89
O=C(COC(=O)c1ccccc1Sc1ccc(C(F)(F)F)cc1[N+](=O)[O-])NC(=O)NC1CCCC1 | 7.56
CN(C)CCOC(C1CCCCC1)C1CCCCC1.Cl | 4.97

Structure (SMILES) | hERG current change (%, negative = inhibition) at 1uM [%]
COc1ccc(N(CC(=O)N2CCc3ccccc32)S(=O)(=O)c2c(C)nn(C)c2C)cc1 | 9.12
C=C(C)COc1ccc(-c2nc(N)ncc2Oc2ccc(OC)cc2)c(O)c1 | -5.45
O=C(COC(=O)[C@@H]1CCCN1S(=O)(=O)c1ccccc1F)NCc1ccc2c(c1)OCO2 | 11
CCOC(=O)c1[nH]c(=O)[nH]c1CSc1nc(C)cc(C)n1 | 6.36
CN(C)S(=O)(=O)c1ccc(C(=O)OCC2COC(C)(C)O2)cc1 (stereo not drawn) | 15.6
Nn1c(SCc2ccccc2F)nnc1-c1ccccn1 | 5.37
CCN(CC)c1ccc(C(=O)OCC(=O)N2CCCC2)cc1 | 8
COc1ccc(CC2(CO)CCN(Cc3cnn(C)c3C)CC2)cc1 | 6.81
CCC(C)(C)n1nnnc1C(c1cc2cc(OC)ccc2[nH]c1=O)N1CCc2ccccc21 (stereo not drawn) | -2.65
CCCCC1=CC2=C(c3ccco3)C(=O)C(C)(OC(=O)c3ccc(OC)cc3)C(=O)C2=CN1Cc1ccco1 (stereo not drawn) | 3.63
COc1ccc(N(C(C)=O)c2nc(C)cc(C)c2C#N)c(OC)c1 | 14
Cc1ccccc1C(=O)Nc1ccccc1NC(=O)c1ccccc1C | 13.9
O=C(Nc1cccn(Cc2c(Cl)cccc2Cl)c1=O)c1c(Cl)cccc1Cl | 0.712
CC1CCCCC1n1c(-c2cccnc2)n[nH]c1=S (stereo not drawn) | 7.49
Cc1ccc2c(C(=O)CNc3nncs3)c(C)[nH]c2c1 | 13.6
Cc1ccc(C(=O)NCCC(=O)NCc2ccco2)cc1 | 13.8
CCCCC1OC2(C)OC(=N)C1(C#N)C(C#N)(C#N)C2c1ccccc1 (stereo not drawn) | 0.781
COc1cc(NC(=O)c2cccs2)c(C(=O)OCC(=O)NCc2ccccc2)cc1OC | 11.9
CC1SC2(CN3CCC2CC3)NC1=O (stereo not drawn) | 12.8
